Data: PubChem BioAssay AID624417 (National Center for Advancing Translational Sciences (NCATS), 2012)
About 6,400 (1.6%) of roughly 410,000 compounds were called active. The shares of active, inactive and inconclusive entries below differ from those in the screen. Calls follow the shape of the dose curve; as a rule, active = well fitted inhibition curve with a large enough effect; inconclusive = small, poorly fitted or top-dose-only effect; inactive = no such curve, though single readings can be large or run the other way. No potency is given beside an inconclusive call; the fits are too rough.

The compounds below were run against Glucagon-like peptide 1 receptor (Homo sapiens) (UniProt P43220) (assay: qHTS of GLP-1 Receptor Inverse Agonists (Inhibition Mode)). Conditions: HEK293 GLP-1R CRE-luciferase, luminescence, 24 h, GLP-1R form is constitutively active; activity change, negative = inhibition: at 38.3 µM (top of the series) unless noted.
Procedure, shortened: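 Readout was luciferase luminescence, measured 12 min after detection reagent at room temperature. Beforehand, GLP-1R reporter HEK293 cells had sat 12 h, then received compounds for 24 hr at 37 deg C.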
% is scaled to controls: 0 for no effect and ±100 for the full control effect; potency is read from the fitted curve at half-maximal effect; tags tell the direction and shape of the fitted curve.
Also: nearly all actives have a fitted effect of over 55% in size.

Chain of UniProt P43220 (P43220 whole entry, looked up): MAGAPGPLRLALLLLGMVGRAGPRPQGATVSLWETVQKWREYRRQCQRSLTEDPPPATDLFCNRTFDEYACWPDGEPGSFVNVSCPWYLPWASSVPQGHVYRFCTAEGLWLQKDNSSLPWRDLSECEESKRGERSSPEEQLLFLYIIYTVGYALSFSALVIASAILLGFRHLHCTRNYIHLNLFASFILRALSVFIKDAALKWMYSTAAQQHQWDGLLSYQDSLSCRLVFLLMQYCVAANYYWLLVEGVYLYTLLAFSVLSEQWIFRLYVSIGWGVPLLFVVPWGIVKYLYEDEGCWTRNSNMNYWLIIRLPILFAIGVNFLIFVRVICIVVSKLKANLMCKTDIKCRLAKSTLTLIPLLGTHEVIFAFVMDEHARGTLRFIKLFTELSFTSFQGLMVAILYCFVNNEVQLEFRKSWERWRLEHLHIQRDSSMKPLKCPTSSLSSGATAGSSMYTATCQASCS

| Structure (SMILES) | Potency | activity change, negative = inhibition |
| --- | --- | --- |
| Cc1ccc(OCC(=O)Nc2nnc(S(=O)(=O)N3c4ccccc4CC3C)s2)cc1 (stereo not drawn) | inconclusive [inhibitor, single point] |  |
| COc1ccc(CNC(=S)NCc2ccc(OC(C)C)cc2)cc1 | inconclusive [inhibitor, single point] |  |
| Cc1cc(N2CCOCC2)n2nc(C)c(-c3ccccc3Cl)c2n1 | inconclusive [inhibitor, single point] |  |
| CC(=O)N1CCc2nc3sc(C(=O)c4ccc(F)cc4)c(N)c3c(C(F)(F)F)c2C1 |  | inactive: -9.66% |
| O=C(NCCN1CCCC1)c1ccc2c(c1)N(Cc1ccccc1)C(=O)c1ccccc1S2(=O)=O | inconclusive [inhibitor, partial curve, poor fit] |  |
| Oc1ccc(-c2cn3ccccc3n2)cc1O |  | inactive: 47.5% |
| CC1=Nc2cc(C(=O)NCCCOC(C)C)ccc2Sc2ccccc21 | inconclusive [inhibitor, partial curve, poor fit] |  |
| Cc1ccccc1NC(=O)Cc1nc(COC(=O)c2ncc(Cl)c(Cl)c2Cl)cs1 | inconclusive [inhibitor, single point] |  |
| COc1ccc(OC)c(NC(=O)NCCc2c[nH]c3ccccc23)c1 | inconclusive [inhibitor, single point] |  |
| Cc1nn(C)c(C(=O)NNC(=S)NC2CCCCC2)c1Cl | inconclusive [inhibitor, partial curve] |  |
| COc1ccccc1CNC(=O)C(=O)NCC1OCCN1S(=O)(=O)c1ccc(Br)cc1 (stereo not drawn) | inconclusive [inhibitor, partial curve, poor fit] |  |
| C/C(=N\NC(=O)CC1N=C(Cc2ccccc2)NNC1=O)c1ccc(Br)cc1 (stereo not drawn) | inconclusive [inhibitor, partial curve, poor fit] |  |
| CCN(CC1COc2ccccc2O1)S(=O)(=O)c1ccc(C)cc1 (stereo not drawn) | inconclusive [inhibitor, partial curve, poor fit] |  |
| Cc1ccccc1C(=O)NCC(c1ccco1)N1CCc2ccccc21 (stereo not drawn) | inconclusive [inhibitor, single point] |  |
| COc1ccc(Oc2nc(C(F)(F)F)nc3ccccc23)cc1 | inconclusive [inhibitor, single point] |  |
| CCc1ccc(NC(=O)CN(c2ccc(C)cc2)S(=O)(=O)c2cccs2)cc1 |  | inactive: -0.936% |
| COCCCN(C(=O)c1ccccc1)c1nc(-c2ccc(OC)cc2)cs1 | inconclusive [inhibitor, single point] |  |
| COc1cccc(CN(CCC(C)C)S(=O)(=O)c2cc(Br)ccc2Br)c1 | inconclusive [inhibitor, single point] |  |
